Reference: publication PMC9911399, “Two distinct binding modes provide the RNA-binding protein RbFox with extraordinary sequence specificity”
Positions count from the first letter of the chain named. This is one part of the list.

T1: RBFOX1 RRM (Homo sapiens, UniProt Q9NWB1 109-208)
T1 sequence: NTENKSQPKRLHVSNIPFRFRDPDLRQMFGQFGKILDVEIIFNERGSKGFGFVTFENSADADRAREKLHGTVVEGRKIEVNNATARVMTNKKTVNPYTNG

B1: AACGGGU (DNA:RNA)
RNA: GGGAGACCGGAAUUCAGAUUGUCCAACGGGUUUAAAUCCCGUCGUAGCCACCA
DNA 1: CAATCTGAATTCCGGTCTCCC
DNA 2: TGGTGGCTACGACGGGATT
B2: UCGUAGG (DNA:RNA)
RNA: B1 RNA with A25U, A26C, C27G, G28U, G29A, U31G
DNA 1: CAATCTGAATTCCGGTCTCCC
DNA 2: TGGTGGCTACGACGGGATT
B3: CCCGUAA (DNA:RNA)
RNA: B1 RNA with A25C, A26C, G29U, G30A, U31A
DNA 1: CAATCTGAATTCCGGTCTCCC
DNA 2: TGGTGGCTACGACGGGATT
B4: AGUUGCA (DNA:RNA)
RNA: B1 RNA with A26G, C27U, G28U, G30C, U31A
DNA 1: CAATCTGAATTCCGGTCTCCC
DNA 2: TGGTGGCTACGACGGGATT
B5: CGUGACC (DNA:RNA)
RNA: B1 RNA with A25C, A26G, C27U, G29A, G30C, U31C
DNA 1: CAATCTGAATTCCGGTCTCCC
DNA 2: TGGTGGCTACGACGGGATT
B6: UUCGCCA (DNA:RNA)
RNA: B1 RNA with A25U, A26U, G29C, G30C, U31A
DNA 1: CAATCTGAATTCCGGTCTCCC
DNA 2: TGGTGGCTACGACGGGATT
B7: ACACGUA (DNA:RNA)
RNA: B1 RNA with A26C, C27A, G28C, G30U, U31A
DNA 1: CAATCTGAATTCCGGTCTCCC
DNA 2: TGGTGGCTACGACGGGATT
B8: AUUCCGA (DNA:RNA)
RNA: B1 RNA with A26U, C27U, G28C, G29C, U31A
DNA 1: CAATCTGAATTCCGGTCTCCC
DNA 2: TGGTGGCTACGACGGGATT
B9: ACUCACU (DNA:RNA)
RNA: B1 RNA with A26C, C27U, G28C, G29A, G30C
DNA 1: CAATCTGAATTCCGGTCTCCC
DNA 2: TGGTGGCTACGACGGGATT
B10: UGACGCC (DNA:RNA)
RNA: B1 RNA with A25U, A26G, C27A, G28C, G30C, U31C
DNA 1: CAATCTGAATTCCGGTCTCCC
DNA 2: TGGTGGCTACGACGGGATT
B11: GACUAAG (DNA:RNA)
RNA: B1 RNA with A25G, G28U, G29A, G30A, U31G
DNA 1: CAATCTGAATTCCGGTCTCCC
DNA 2: TGGTGGCTACGACGGGATT
B12: UAUUAGA (DNA:RNA)
RNA: B1 RNA with A25U, C27U, G28U, G29A, U31A
DNA 1: CAATCTGAATTCCGGTCTCCC
DNA 2: TGGTGGCTACGACGGGATT
B13: ACUCUGU (DNA:RNA)
RNA: B1 RNA with A26C, C27U, G28C, G29U
DNA 1: CAATCTGAATTCCGGTCTCCC
DNA 2: TGGTGGCTACGACGGGATT
B14: UUAUCGA (DNA:RNA)
RNA: B1 RNA with A25U, A26U, C27A, G28U, G29C, U31A
DNA 1: CAATCTGAATTCCGGTCTCCC
DNA 2: TGGTGGCTACGACGGGATT
B15: UCCGUCG (DNA:RNA)
RNA: B1 RNA with A25U, A26C, G29U, G30C, U31G
DNA 1: CAATCTGAATTCCGGTCTCCC
DNA 2: TGGTGGCTACGACGGGATT
B16: UACAUUC (DNA:RNA)
RNA: B1 RNA with A25U, G28A, G29U, G30U, U31C
DNA 1: CAATCTGAATTCCGGTCTCCC
DNA 2: TGGTGGCTACGACGGGATT
B17: ACUCUAA (DNA:RNA)
RNA: B1 RNA with A26C, C27U, G28C, G29U, G30A, U31A
DNA 1: CAATCTGAATTCCGGTCTCCC
DNA 2: TGGTGGCTACGACGGGATT
B18: GUCCCAC (DNA:RNA)
RNA: B1 RNA with A25G, A26U, G28C, G29C, G30A, U31C
DNA 1: CAATCTGAATTCCGGTCTCCC
DNA 2: TGGTGGCTACGACGGGATT
B19: CCCGCCU (DNA:RNA)
RNA: B1 RNA with A25C, A26C, G29C, G30C
DNA 1: CAATCTGAATTCCGGTCTCCC
DNA 2: TGGTGGCTACGACGGGATT
B20: GCUCAGC (DNA:RNA)
RNA: B1 RNA with A25G, A26C, C27U, G28C, G29A, U31C
DNA 1: CAATCTGAATTCCGGTCTCCC
DNA 2: TGGTGGCTACGACGGGATT
B21: GGAUAAU (DNA:RNA)
RNA: B1 RNA with A25G, A26G, C27A, G28U, G29A, G30A
DNA 1: CAATCTGAATTCCGGTCTCCC
DNA 2: TGGTGGCTACGACGGGATT
B22: GGUCUAU (DNA:RNA)
RNA: B1 RNA with A25G, A26G, C27U, G28C, G29U, G30A
DNA 1: CAATCTGAATTCCGGTCTCCC
DNA 2: TGGTGGCTACGACGGGATT
B23: CGAGCAG (DNA:RNA)
RNA: B1 RNA with A25C, A26G, C27A, G29C, G30A, U31G
DNA 1: CAATCTGAATTCCGGTCTCCC
DNA 2: TGGTGGCTACGACGGGATT
B24: AAUUUAC (DNA:RNA)
RNA: B1 RNA with C27U, G28U, G29U, G30A, U31C
DNA 1: CAATCTGAATTCCGGTCTCCC
DNA 2: TGGTGGCTACGACGGGATT
B25: AACGCUU (DNA:RNA)
RNA: B1 RNA with G29C, G30U
DNA 1: CAATCTGAATTCCGGTCTCCC
DNA 2: TGGTGGCTACGACGGGATT
B26: CCGACGU (DNA:RNA)
RNA: B1 RNA with A25C, A26C, C27G, G28A, G29C
DNA 1: CAATCTGAATTCCGGTCTCCC
DNA 2: TGGTGGCTACGACGGGATT
B27: CGGUACC (DNA:RNA)
RNA: GGGAGACCGGAAUUCAGAUUGUCCCGGUACCUUAAAUCCCGUCGUAGCCACCA
DNA 1: CAATCTGAATTCCGGTCTCCC
DNA 2: TGGTGGCTACGACGGGATT
B28: UUCCGUA (DNA:RNA)
RNA: B1 RNA with A25U, A26U, G28C, G30U, U31A
DNA 1: CAATCTGAATTCCGGTCTCCC
DNA 2: TGGTGGCTACGACGGGATT
B29: ACUCCAG (DNA:RNA)
RNA: B1 RNA with A26C, C27U, G28C, G29C, G30A, U31G
DNA 1: CAATCTGAATTCCGGTCTCCC
DNA 2: TGGTGGCTACGACGGGATT
B30: CCUUAAU (DNA:RNA)
RNA: B27 RNA with G26C, G27U, C30A, C31U
DNA 1: CAATCTGAATTCCGGTCTCCC
DNA 2: TGGTGGCTACGACGGGATT
B31: AUGAUGA (DNA:RNA)
RNA: B1 RNA with A26U, C27G, G28A, G29U, U31A
DNA 1: CAATCTGAATTCCGGTCTCCC
DNA 2: TGGTGGCTACGACGGGATT

What follows are binders tested against T1, RBFOX1 RRM (assay: EMSA; HiTS-Eq, 1 nM pool, 10 min; buffer printed only for the single-RNA assays: 10 mM Tris pH 7.5, 150 mM NaCl, 3.4 mM EDTA, 0.001% NP-40, 30 C). Conditions: tags: His6 N-terminal (pET28a); label: 5' 32P.
In short: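 A pool of RNA with 7 randomized nucleotides, 5′-radiolabelled and with DNA-annealed flanks, was equilibrated at 1 nM for 10 min in 50 µL with purified RbFox RRM, wild type or mutant, across increasing protein concentrations. Free RNA was separated by 8% native PAGE, excised, reverse-transcribed, barcoded by PCR and sequenced. Relative association constants were obtained from read-count changes of each RNA species versus the control reaction and normalised to the cognate motif.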
In the case of B1, the binding signal is reported as 0.011 KA relative to UGCAUGU.
For B2, the binding signal was 0.00965 KA relative to UGCAUGU.
For B3, the binding signal was 0.000282 KA relative to UGCAUGU.
With B4 the binding signal was 0.0173 KA relative to UGCAUGU.
In the case of B5, the binding signal is reported as 0.0102 KA relative to UGCAUGU.
In the case of B6, the binding signal is reported as 0.00715 KA relative to UGCAUGU.
For B7, the binding signal was 0.00218 KA relative to UGCAUGU.
With B8 the binding signal was 0.0045 KA relative to UGCAUGU.
B9 was tested, and the binding signal was 0.000373 KA relative to UGCAUGU.
With B10 the binding signal was 0.011 KA relative to UGCAUGU.
In the case of B11, the binding signal is reported as 0.0138 KA relative to UGCAUGU.
In the case of B12, the binding signal is reported as 0.0159 KA relative to UGCAUGU.
With B13 the binding signal was 0.00745 KA relative to UGCAUGU.
For B14, the binding signal was 0.00877 KA relative to UGCAUGU.
B15 was tested, and the binding signal was 0.0147 KA relative to UGCAUGU.
For B16, the binding signal was 0.00373 KA relative to UGCAUGU.
With B17 the binding signal was 0.00112 KA relative to UGCAUGU.
B18 was tested, and the binding signal was 0.00365 KA relative to UGCAUGU.
In the case of B19, the binding signal is reported as 0.0125 KA relative to UGCAUGU.
With B20 the binding signal was 0.011 KA relative to UGCAUGU.
B21 was tested, and the binding signal was 0.0114 KA relative to UGCAUGU.
In the case of B22, the binding signal is reported as 0.00632 KA relative to UGCAUGU.
With B23 the binding signal was 0.0104 KA relative to UGCAUGU.
In the case of B24, the binding signal is reported as 0.00288 KA relative to UGCAUGU.
B25 was tested, and the binding signal was 0.00309 KA relative to UGCAUGU.
With B26 the binding signal was 0.0055 KA relative to UGCAUGU.
For B27, the binding signal was 0.00911 KA relative to UGCAUGU.
In the case of B28, the binding signal is reported as 0.00467 KA relative to UGCAUGU.
With B29 the binding signal was 0.00187 KA relative to UGCAUGU.
B30 was tested, and the binding signal was 0.00134 KA relative to UGCAUGU.
B31 was tested, and the binding signal was 0.0162 KA relative to UGCAUGU.
